# The list shows a part of the results.
# Experiments:
# Test in all cases: glycan array binding signal (z-score within array); higher = stronger binding
# Details in all cases: glycan notation: IUPAC condensed, linker removed; mutation: H59Q
# [1] = target: Gal(a1-6)Glc
# How it was run: (§1)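 Glycan array data came from 3228 arrays in the Consortium for Functional Glycomics database, and only arrays with an available protein sequence were kept. Glycan names were put into IUPAC-condensed notation, and columns mapping to the same glycan were averaged. The binding signal is a within-array Z-score, averaged across arrays of one protein sequence run at different concentrations or buffers and across linkers. A negative Z-score can be read as non-binding.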
# [2] = target: Gal(b1-2)Gal
# How it was run: as §1
# [3] = target: Gal(b1-3)Gal
# How it was run: as §1
# [4] = target: Gal(b1-3)Gal(b1-4)GlcNAc
# How it was run: as §1
# [5] = target: Gal(b1-3)GalNAc
# How it was run: as §1
# [6] = target: Gal(b1-3)GalNAc(a1-3)[Fuc(a1-2)]Gal(b1-4)Glc
# How it was run: as §1
# [7] = target: Gal(b1-3)GalNAc(a1-3)[Fuc(a1-2)]Gal(b1-4)GlcNAc
# How it was run: as §1
# [8] = target: Gal(b1-3)GalNAc(b1-3)Gal
# How it was run: as §1
# [9] = target: Gal(b1-3)GalNAc(b1-3)Gal(a1-4)Gal(b1-4)Glc
# How it was run: as §1
# [10] = target: Gal(b1-3)GalNAc(b1-4)Gal(b1-4)Glc
# How it was run: as §1
# [11] = target: Gal(b1-3)GalNAc(b1-4)[Neu5Ac(a2-3)]Gal(b1-4)Glc
# How it was run: as §1
# [12] = target: Gal(b1-3)GlcNAc
# How it was run: as §1
# [13] = target: Gal(b1-3)GlcNAc(a1-3)Gal(b1-4)GlcNAc
# How it was run: as §1
# [14] = target: Gal(b1-3)GlcNAc(a1-6)Gal(b1-4)GlcNAc
# How it was run: as §1
# [15] = target: Gal(b1-3)GlcNAc(b1-2)Man
# How it was run: as §1
# [16] = target: Gal(b1-3)GlcNAc(b1-2)Man(a1-3)[Gal(b1-3)GlcNAc(b1-2)Man(a1-6)]Man(b1-4)GlcNAc(b1-4)GlcNAc
# How it was run: as §1
# [17] = target: Gal(b1-3)GlcNAc(b1-2)Man(a1-3)[Gal(b1-3)GlcNAc(b1-2)Man(a1-6)]Man(b1-4)GlcNAc(b1-4)[Fuc(a1-6)]GlcNAc
# How it was run: as §1
# [18] = target: Gal(b1-3)GlcNAc(b1-2)Man(a1-3)[GlcNAc(b1-4)][Gal(b1-3)GlcNAc(b1-2)Man(a1-6)]Man(b1-4)GlcNAc(b1-4)GlcNAc
# How it was run: as §1
# [19] = target: Gal(b1-3)GlcNAc(b1-2)[Gal(b1-3)GlcNAc(b1-6)]Man(a1-6)[Gal(b1-3)GlcNAc(b1-2)Man(a1-3)]Man(b1-4)GlcNAc(b1-4)GlcNAc
# How it was run: as §1
# [20] = target: Gal(b1-3)GlcNAc(b1-3)Gal(b1-3)GlcNAc
# How it was run: as §1
# [21] = target: Gal(b1-3)GlcNAc(b1-3)Gal(b1-4)Glc
# How it was run: as §1
# [22] = target: Gal(b1-3)GlcNAc(b1-3)Gal(b1-4)GlcNAc
# How it was run: as §1
# [23] = target: Gal(b1-3)GlcNAc(b1-3)Gal(b1-4)GlcNAc(b1-2)Man(a1-3)[Gal(b1-3)GlcNAc(b1-3)Gal(b1-4)GlcNAc(b1-2)Man(a1-6)]Man(b1-4)GlcNAc(b1-4)GlcNAc
# How it was run: as §1
# [24] = target: Gal(b1-3)GlcNAc(b1-3)Gal(b1-4)GlcNAc(b1-2)[Gal(b1-3)GlcNAc(b1-3)Gal(b1-4)GlcNAc(b1-6)]Man(a1-6)[Gal(b1-3)GlcNAc(b1-3)Gal(b1-4)GlcNAc(b1-2)Man(a1-3)]Man(b1-4)GlcNAc(b1-4)[Fuc(a1-6)]GlcNAc
# How it was run: as §1
# [25] = target: Gal(b1-3)GlcNAc(b1-3)Gal(b1-4)GlcNAc(b1-3)Gal(b1-4)GlcNAc(b1-2)[Gal(b1-3)GlcNAc(b1-3)Gal(b1-4)GlcNAc(b1-3)Gal(b1-4)GlcNAc(b1-6)]Man(a1-6)[Gal(b1-3)GlcNAc(b1-3)Gal(b1-4)GlcNAc(b1-3)Gal(b1-4)GlcNAc(b1-2)Man(a1-3)]Man(b1-4)GlcNAc(b1-4)[Fuc(a1-6)]GlcNAc
# How it was run: as §1
# [26] = target: Gal(b1-3)GlcNAc(b1-3)Gal(b1-4)GlcNAc(b1-6)[Gal(b1-3)GlcNAc(b1-3)]Gal(b1-4)Glc
# How it was run: as §1
# [27] = target: Gal(b1-3)GlcNAc(b1-3)Gal(b1-4)[Fuc(a1-3)]GlcNAc
# How it was run: as §1
# [28] = target: Gal(b1-3)GlcNAc(b1-3)Gal(b1-4)[Fuc(a1-3)]GlcNAc(b1-6)[Gal(b1-3)GlcNAc(b1-3)]Gal(b1-4)Glc
# How it was run: as §1
# [29] = target: Gal(b1-3)GlcNAc(b1-3)GalNAc
# How it was run: as §1
# [30] = target: Gal(b1-3)GlcNAc(b1-6)Gal(b1-4)GlcNAc
# How it was run: as §1
# [31] = target: Gal(b1-3)GlcNAc(b1-6)GalNAc
# How it was run: as §1
# [32] = target: Gal(b1-3)GlcNAc(b1-6)[Gal(b1-3)]GalNAc
# How it was run: as §1
# [33] = target: Gal(b1-3)GlcNAc6S
# How it was run: as §1
# [34] = target: Gal(b1-3)[Fuc(a1-4)]GlcNAc
# How it was run: as §1
# [35] = target: Gal(b1-3)[Fuc(a1-4)]GlcNAc(b1-2)Man
# How it was run: as §1
# [36] = target: Gal(b1-3)[Fuc(a1-4)]GlcNAc(b1-2)Man(a1-3)[Gal(b1-3)[Fuc(a1-4)]GlcNAc(b1-2)Man(a1-6)]Man(b1-4)GlcNAc(b1-4)[Fuc(a1-6)]GlcNAc
# How it was run: as §1
# [37] = target: Gal(b1-3)[Fuc(a1-4)]GlcNAc(b1-3)Gal(b1-3)[Fuc(a1-4)]GlcNAc
# How it was run: as §1
# [38] = target: Gal(b1-3)[Fuc(a1-4)]GlcNAc(b1-3)Gal(b1-4)[Fuc(a1-3)]GlcNAc
# How it was run: as §1
# [39] = target: Gal(b1-3)[Fuc(a1-4)]GlcNAc(b1-6)GalNAc
# How it was run: as §1
# [40] = target: Gal(b1-3)[GlcNAc(b1-6)]GalNAc
# How it was run: as §1
# [41] = target: Gal(b1-3)[Neu5Ac(a2-6)]GalNAc
# How it was run: as §1
# [42] = target: Gal(b1-3)[Neu5Ac(a2-6)]GlcNAc(b1-4)Gal(b1-4)Glc
# How it was run: as §1
# [43] = target: Gal(b1-3)[Neu5Ac(b2-6)]GalNAc
# How it was run: as §1
# [44] = target: Gal(b1-4)Gal
# How it was run: as §1
# [45] = target: Gal(b1-4)GalNAc(a1-3)[Fuc(a1-2)]Gal(b1-4)GlcNAc
# How it was run: as §1
binder,measurement,setting,value
"rAAL-H59Q (Agrocybe aegerita), Q6WY08 (protein) MQGVNIYNISAGTSVDLAAPVTTGDIVTFFSSALNLNAGAGNPNNTTLNLFAENGAYLLQIAFRLQENVIIFNSRQPDGPWLVEQRVSDVANQFAGIDGKAMVTVFDHGDKYQVVINEKTVIQYTKQISGLTLSLSYNATEETSIFSTVVEAVTYTGLALEHHHHHH",glycan array binding signal (z-score),[1],-0.062
same,glycan array binding signal (z-score),[2],-0.097
same,glycan array binding signal (z-score),[3],-0.05
same,glycan array binding signal (z-score),[4],-0.079
same,glycan array binding signal (z-score),[5],-0.097
same,glycan array binding signal (z-score),[6],0.012
same,glycan array binding signal (z-score),[7],-0.093
same,glycan array binding signal (z-score),[8],-0.095
same,glycan array binding signal (z-score),[9],-0.021
same,glycan array binding signal (z-score),[10],-0.083
same,glycan array binding signal (z-score),[11],-0.109
same,glycan array binding signal (z-score),[12],-0.102
same,glycan array binding signal (z-score),[13],-0.119
same,glycan array binding signal (z-score),[14],0.005
same,glycan array binding signal (z-score),[15],-0.103
same,glycan array binding signal (z-score),[16],-0.099
same,glycan array binding signal (z-score),[17],-0.137
same,glycan array binding signal (z-score),[18],-0.093
same,glycan array binding signal (z-score),[19],-0.084
same,glycan array binding signal (z-score),[20],-0.108
same,glycan array binding signal (z-score),[21],-0.083
same,glycan array binding signal (z-score),[22],-0.093
same,glycan array binding signal (z-score),[23],-0.16
same,glycan array binding signal (z-score),[24],0.115
same,glycan array binding signal (z-score),[25],-0.104
same,glycan array binding signal (z-score),[26],-0.026
same,glycan array binding signal (z-score),[27],-0.084
same,glycan array binding signal (z-score),[28],-0.105
same,glycan array binding signal (z-score),[29],-0.109
same,glycan array binding signal (z-score),[30],-0.104
same,glycan array binding signal (z-score),[31],-0.025
same,glycan array binding signal (z-score),[32],-0.143
same,glycan array binding signal (z-score),[33],-0.066
same,glycan array binding signal (z-score),[34],-0.116
same,glycan array binding signal (z-score),[35],-0.094
same,glycan array binding signal (z-score),[36],-0.055
same,glycan array binding signal (z-score),[37],-0.086
same,glycan array binding signal (z-score),[38],-0.134
same,glycan array binding signal (z-score),[39],-0.102
same,glycan array binding signal (z-score),[40],-0.112
same,glycan array binding signal (z-score),[41],-0.095
same,glycan array binding signal (z-score),[42],-0.115
same,glycan array binding signal (z-score),[43],-0.098
same,glycan array binding signal (z-score),[44],-0.098
same,glycan array binding signal (z-score),[45],-0.088

# Source: the supplement of paper PMC8728848
